# Laboratory results taken from PubChem BioAssay AID2546 (National Center for Advancing Translational Sciences (NCATS), 2010).
# About 11,000 (3.5%) of roughly 310,000 compounds were called active. The inconclusive results got no clear call from the source; some entries with a clear call stand among them for comparison. Calls come from the whole dose curve; as a rule, active = well fitted inhibition curve with a large enough effect; inconclusive = small, poorly fitted or top-dose-only effect, or effect the other way; inactive = flat fitted curve, though single readings scatter. Potencies of inconclusive entries are left out as doubtful fits.
# Assay: VP16 counterscreen qHTS for inhibitors of ROR gamma transcriptional activity;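 note: Gal4-VP16 expression switched on by copper sulfate through the metallothionein promoter; nearly all actives have a fitted effect of over 50% in size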
# Details: Drosophila S2 Gal4-VP16 UAS-luciferase, luminescence, 20 h; activity, negative = inhibition: at 53.6 µM (top of the series)
# % is set by controls: 0 for no effect and ±100 for the full control effect; potency is the fitted concentration of half-maximal effect; tags give direction and shape of the fitted curve.
Compound,Potency,"activity, negative = inhibition"
CCCC1NC(=S)N(C2CCCCC2)C1=O (stereo not given),"inconclusive [inhibitor, partial curve, poor fit]",–
N#Cc1c(N)oc(-c2ccccc2)c1-c1ccccc1,–,inactive: -1.16%
Nc1nonc1-c1nc2ccccc2n1Cc1ccc(F)cc1Cl,"inconclusive [inhibitor, single point]",–
Cc1cc(F)ccc1NC(=S)NCCc1ccccc1,active: 5.62 µM,–
N=C1S/C(=C\c2cccc3ccccc23)C(=O)N1c1ccc(F)cc1,"inconclusive [inhibitor, single point]",–
CCOc1ccc(C(=O)CSc2nnc(N)s2)cc1,"inconclusive [inhibitor, single point]",–
N#CCCN(C(=O)COC(=O)c1ccc(CNS(=O)(=O)c2ccc(F)c(Cl)c2)cc1)c1ccc(F)cc1,"inconclusive [inhibitor, partial curve, poor fit]",–
CCC(C)c1ccc(O)c(NC(=S)NC(=O)c2cccnc2)c1 (stereo not given),active: 1.26 µM,–
Cc1ccc(NC(=O)CS(=O)CC(=O)NC2CCN(Cc3ccccc3)CC2)c(C)c1 (stereo not given),"inconclusive [inhibitor, single point]",–
CC(C)c1ccc(-c2noc(C3CCCN(S(C)(=O)=O)C3)n2)cc1 (stereo not given),"inconclusive [inhibitor, single point]",–
Cc1cccc(C(=O)NNS(=O)(=O)c2ccccc2[N+](=O)[O-])c1,–,inactive: -9.8%
CN1CCN(c2ccc(NC(=O)C(C)(c3ccccc3)c3ccccc3)cc2)CC1,–,inactive: -2.06%
CCCCn1c(SCC(=O)Nc2cccc(OC)c2)nc2ccc(N3CCOCC3)cc2c1=O,active: 12.6 µM,–
CCOC(=O)c1c(NC(=S)Nc2ccc(F)cc2)sc2c1CCC2,"inconclusive [inhibitor, partial curve]",–
O=C1CC[C@H](OCc2ccccc2)CCN1[C@H](CSc1ccccc1)Cc1ccccc1,"inconclusive [inhibitor, single point]",–
Cn1cccc1Cc1nnc(SCC(=O)N2CCOCC2)n1-c1ccc(F)cc1,"inconclusive [inhibitor, full curve, poor fit]",–
N#CCCn1nc(-c2ccc([N+](=O)[O-])cc2)cc1Nc1ccccc1NC(=O)C(F)(F)F,"inconclusive [inhibitor, single point]",–
CCCCCc1ccc(-c2ccc(=O)[nH]n2)cc1,–,inactive: 3.18%
COc1ccc(C(=O)/C(=C\c2ccco2)N2C=CC=CC2=C(C#N)C#N)cc1,active: 3.55 µM,–
CC1CCCN(C(=O)c2ccc(COc3ccccc3Br)cc2)C1 (stereo not given),"inconclusive [inhibitor, single point]",–
O=C(CN(Cc1ccc(Cl)cc1)C(=O)c1csnn1)NCc1ccc(F)cc1,–,inactive: 1.88%
CCOC(=O)N1CCN(C(=S)NC(=O)C23CC4CC(CC(C4)C2)C3)CC1,"inconclusive [inhibitor, single point]",–
Cc1cc(C)n(-c2nc3ccccc3c(=O)n2OCc2ccc(Cl)cc2)n1,"inconclusive [inhibitor, single point]",–
Cc1ccc(C)c(SCC(=O)NNC(=O)c2csc(N3CCOCC3)n2)c1,"inconclusive [inhibitor, single point]",–
Cc1cccc2nc(CSc3nc4ccccc4o3)cn12,"inconclusive [inhibitor, single point]",–

Compound,Potency,"activity, negative = inhibition"
CCN(CC(=O)NCc1ccc(F)cc1)C(=O)c1ccc(Cl)cc1,–,inactive: -8.41%
O=C1CCCC(O)=C1C=Nc1ccc2c(c1)oc1ccccc12,"inconclusive [activator, full curve, poor fit]",–
Cc1cc(C)c(S(=O)(=O)N2CCCC(C(=O)NC3CC3)C2)c(C)c1 (stereo not given),–,inactive: 3.27%
Cc1ccc(C(=O)NC(C)C2CC3CCC2C3)c(C)c1 (stereo not given),"inconclusive [activator, single point]",–
CCN(CC)c1ccc(/C=N/NC(=S)NC)c(O)c1,active: 1.78 µM,–
O=C(CNC(c1ccccc1)c1ccccc1)Nc1ccccc1-c1ccccc1,"inconclusive [inhibitor, single point]",–
COc1ccc(CNC(=O)CN(Cc2ccc(OC)cc2)C(=O)CCC(=O)Nc2ccccn2)cc1,–,inactive: 4.5%
CCOc1ccc(NC(=O)C2CCN(S(C)(=O)=O)CC2)cc1,–,inactive: 2%
N#Cc1ccc(/C=N/NC(=S)Nc2ccc(S(=O)(=O)N3CCOCC3)cc2)cc1,"inconclusive [inhibitor, partial curve]",–
COc1ccc(NC(=O)C(Cc2ccccc2)n2cccc2)cc1 (stereo not given),–,inactive: 3.68%
N#C/C(=C\c1ccc(OCc2cccc(C(=O)O)c2)cc1)C(=O)NCc1ccco1,"inconclusive [inhibitor, single point]",–
O=C(NNS(=O)(=O)c1ccc(Cl)cc1)NC1CCCCC1,–,inactive: 1.61%
O=C(Nc1ccccn1)Nc1cccs1,active: 10 µM,–
Cc1ccn2c(Nc3ccccc3C)c(-c3ccncc3)nc2c1,–,inactive: 1.33%
CCN(CC)CCCN1C(=O)C(=O)/C(=C(/O)c2ccc3c(c2)OCCO3)C1c1ccc(C)o1 (stereo not given),–,inactive: 16.7%
CC(C)(C)CC(C)(C)c1ccc(O)c(Cc2ccc(Cl)cc2Cl)c1,"inconclusive [inhibitor, single point]",–
Cc1cc(=O)[nH]c(SCc2cccc(F)c2)n1,–,inactive: 11.1%
S=c1sc2c(Cl)ncnc2n1-c1ccccc1,"inconclusive [inhibitor, single point]",–
CCn1cc(C2=NOC(C(=O)Nc3cccc(C(C)=O)c3)C2)c(C)n1 (stereo not given),–,inactive: -22.4%
COc1cc([C@@H]2Oc3cc([C@H]4Oc5cc(O)cc(O)c5C(=O)[C@H]4O)ccc3O[C@H]2CO)ccc1O,–,inactive: -4.64%
CCN(CC)CCN(C(=O)c1ccc2c(c1)CCCC2)c1nc2cc(OC)c(OC)cc2s1,"inconclusive [inhibitor, single point]",–
O=C(CN1CCCCCC1)N/N=C/c1cccc(Cl)c1Cl,–,inactive: 29.8%
CCOC(=O)c1c(NC(=O)c2ccc(S(=O)(=O)N3CCOCC3)cc2)sc2c1CCN(C)C2,"inconclusive [inhibitor, single point]",–
CCCNC(=O)NC(=O)COC(=O)c1ccc(S(=O)(=O)N(C)c2ccccc2OC)cc1,"inconclusive [inhibitor, single point]",–
CC(C)OP(=O)(OC(C)C)C1(O)C(=O)Nc2ccc(Br)cc21 (stereo not given),"inconclusive [inhibitor, partial curve]",–

Compound,Potency,"activity, negative = inhibition"
Cc1cccc(NC(=O)CCc2nnc3ccc(NCc4ccco4)nn23)n1,–,inactive: 0.638%
CN(C)c1ccc(C(=S)N2CCN(Cc3ccccc3)CC2)cc1,–,inactive: -3.81%
Cc1ccc(F)c([C@H]2C3C=CCC(c4ccccc4)C3C(=O)N2Cc2ccccc2)c1 (stereo not given in full),"inconclusive [inhibitor, single point]",–
Cc1ccc(CSCC(N)C(=O)O)cc1 (stereo not given),–,inactive: -1.53%
CC(C)c1nnc(NC(=O)c2cccs2)s1,"inconclusive [activator, full curve]",–
Cc1ccc(-n2nc3c(N4CCC(C(=O)NCc5ccccc5C)CC4)nnc(C)c3c2C)cc1,"inconclusive [inhibitor, single point]",–
Cc1ccc(Cl)cc1N1CCN(C(=O)CCS(=O)(=O)c2ccc3c(c2)NC(=O)CO3)CC1,"inconclusive [inhibitor, single point]",–
Cc1nc(NCc2ccccc2)c2nc(-c3ccccc3)n(CCCN3CCOCC3)c2n1,–,inactive: -5.82%
O=[N+]([O-])c1ccc(N2CCCC2)cc1NCc1ccccc1,–,inactive: 2.65%
Cn1ccnc1C1CCCCN1Cc1nc(Cc2cccc(C(F)(F)F)c2)no1 (stereo not given),"inconclusive [inhibitor, single point]",–
O=C(Cn1c(=O)[nH]c2ccccc2c1=O)Nc1ccc2c(c1)OCCO2,–,inactive: 2.83%
COc1cccc(C2CCCN2Cc2nc(-c3sccc3C)oc2C)c1 (stereo not given),–,inactive: 4.25%
Cc1nn2c(C)nc3sc4c(c3c2nc1=O)CC(C)(C)OC4,–,inactive: -2.21%
Nc1nc2ccc(S(=O)(=O)c3ccc4nc(N)sc4c3)cc2s1,"inconclusive [inhibitor, single point]",–
CCCN(CCC)S(=O)(=O)c1ccc(C(=O)Nc2nnc(-c3cc(OC)cc(OC)c3)o2)cc1,active: 0.282 µM,–
CC1CCC/C=C/C(=O)c2c(O)cc(O)cc2CC(=O)O1 (stereo not given),active: 22.4 µM,–
COc1ccc(OC)c(Nc2nc(=O)c3cccnc3s2)c1,active: 3.16 µM,–
Nc1cc(=O)[nH]c2nnc(SCC(=O)Nc3cccc4ccccc34)n12,–,inactive: -2.73%
O=C1C(=O)N(CCCN2CCOCC2)C(c2ccc([N+](=O)[O-])cc2)/C1=C(/O)c1ccc2c(c1)OCO2 (stereo not given),–,inactive: -0.172%
CCOc1ccc(NC(=S)Nc2ccccc2C2(C)CC2)cc1,"inconclusive [inhibitor, single point]",–
Clc1ccc(COn2c(-c3ccccc3)nc3ccccc32)cc1,"inconclusive [inhibitor, single point]",–
Cc1ccc(C(=O)/C=C\NCc2ccccc2)cc1,"inconclusive [inhibitor, single point]",–
O=C(N/N=C/C=C/c1ccco1)/C(=C/c1ccccc1)NC(=O)c1ccccc1,"inconclusive [inhibitor, single point]",–
CCOc1ccc(-c2c(C(=O)N/N=C/c3ccc(C)s3)nnn2-c2nonc2N)cc1,active: 2.82 µM,–
O=C(CCl)N(Cc1ccccc1)c1ccccc1,"inconclusive [inhibitor, partial curve]",–
